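All cell lines were grown in 96-well plates and treated with compound for 48 hours. Here, GI50 denotes the concentration required for 50% inhibition of growth. TGI: concentration producing complete growth inhibition.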
Tested on: MDA-MB-468 breast
Assay: NCI tumour cell line growth inhibition, 48 h

Work on `CN[C@@H]1C[C@H]2O[C@@](C)([C@@H]1OC)n1c3ccccc3c3c4c(c5c6ccccc6n2c5c31)C(=O)NC4` yielded a GI50 of less than 10 nM and a TGI of less than 10 nM.

Source: PubChem BioAssay (NCI)
